{
  "source": "the supplement of paper PMC8728848",
  "binders": {"B1": {"name": "PX14379A-bvu-539-28-539 (Bacteroides vulgatus) (protein)", "chain": "EPYSEIIEEDYVPTEADEIALLATTYSQLRFVMDWYGLFDLQEESGDVIVTPTRPNGWDDGGTYKQMHKHTWDNQQGQPQSIWDYCYKGIANANKILKRADEGFFTEESKPKVVAEVKGVRALWYSILCDTHGNIPIQTSFSEEVPVQSTRKQVFDFIINELKEVMPNLPTEVNKSTYGRLTQWGAKCLMARMYLNAGVYTGTPMWNECLEQCNDIINSGLFSLETNYTDIFKTENSGCVETIFAIPYDEVYNEGDNNGPVFGAHMKFLSSNSRKVFNMQTTPWGGSAANPQFINSYDPDDMRLKYTWLQGDQYSPDGVLITTFPNKLPSIYKTDTDDGYRVGKYEIKVGAKSLLSNDFPYFRYTEVLLMKAECLLRLGQNETEAAHIVSQIRERAFRESAHPEKATVDAAWLKGDTHINYGTLDEKGQIDDAGNTEVVELGGLYDEWGWEFAAEARRRTDMIRFGTYQKKSWFNHTPTANDLNGNSILFPIHLDHLNTNPNLQQNPGYAGK"}},
  "experiment_in_all_cases": "glycan array binding signal (z-score within array); higher = stronger binding",
  "settings_in_all_cases": "glycan notation: IUPAC condensed, linker removed",
  "key": {"Fuc(a1-2)Gal": {"biological_target": "Fuc(a1-2)Gal", "how_it_was_run": "(§1)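 The binding signal is a Z-score computed within each array. Data were drawn from 3228 arrays in the Consortium for Functional Glycomics database, restricted to those with a known protein sequence. Scores were averaged over arrays of the same protein sequence at different concentrations or buffers, and over linkers, and negative values can be taken as non-binding.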"}, "Fuc(a1-2)Gal(b1-3)GalNAc": {"biological_target": "Fuc(a1-2)Gal(b1-3)GalNAc", "how_it_was_run": "as §1"}, "[1]": {"biological_target": "Fuc(a1-2)Gal(b1-3)GalNAc(a1-3)[Fuc(a1-2)]Gal(b1-4)Glc", "how_it_was_run": "as §1"}, "[2]": {"biological_target": "Fuc(a1-2)Gal(b1-3)GalNAc(a1-3)[Fuc(a1-2)]Gal(b1-4)GlcNAc", "how_it_was_run": "as §1"}, "[3]": {"biological_target": "Fuc(a1-2)Gal(b1-3)GalNAc(b1-3)Gal", "how_it_was_run": "as §1"}, "[4]": {"biological_target": "Fuc(a1-2)Gal(b1-3)GalNAc(b1-3)Gal(a1-4)Gal(b1-4)Glc", "how_it_was_run": "as §1"}, "[5]": {"biological_target": "Fuc(a1-2)Gal(b1-3)GalNAc(b1-4)[Neu5Ac(a2-3)]Gal(b1-4)Glc", "how_it_was_run": "as §1"}, "Fuc(a1-2)Gal(b1-3)GlcNAc": {"biological_target": "Fuc(a1-2)Gal(b1-3)GlcNAc", "how_it_was_run": "as §1"}, "[6]": {"biological_target": "Fuc(a1-2)Gal(b1-3)GlcNAc(b1-2)Man(a1-3)[Fuc(a1-2)Gal(b1-3)GlcNAc(b1-2)Man(a1-6)]Man(b1-4)GlcNAc(b1-4)GlcNAc", "how_it_was_run": "as §1"}, "[7]": {"biological_target": "Fuc(a1-2)Gal(b1-3)GlcNAc(b1-2)Man(a1-3)[Fuc(a1-2)Gal(b1-3)GlcNAc(b1-2)Man(a1-6)]Man(b1-4)GlcNAc(b1-4)[Fuc(a1-6)]GlcNAc", "how_it_was_run": "as §1"}, "[8]": {"biological_target": "Fuc(a1-2)Gal(b1-3)GlcNAc(b1-3)Gal(b1-4)Glc", "how_it_was_run": "as §1"}, "[9]": {"biological_target": "Fuc(a1-2)Gal(b1-3)GlcNAc(b1-3)GalNAc", "how_it_was_run": "as §1"}, "[10]": {"biological_target": "Fuc(a1-2)Gal(b1-3)GlcNAc(b1-3)[Fuc(a1-2)Gal(b1-3)GlcNAc(b1-6)]GalNAc", "how_it_was_run": "as §1"}, "[11]": {"biological_target": "Fuc(a1-2)Gal(b1-3)GlcNAc(b1-3)[Gal(b1-4)GlcNAc(b1-6)]Gal(b1-4)Glc", "how_it_was_run": "as §1"}, "[12]": {"biological_target": "Fuc(a1-2)Gal(b1-3)GlcNAc(b1-3)[Neu5Ac(a2-6)Gal(b1-4)GlcNAc(b1-6)]Gal(b1-4)Glc", "how_it_was_run": "as §1"}, "[13]": {"biological_target": "Fuc(a1-2)Gal(b1-3)GlcNAc6S", "how_it_was_run": "as §1"}, "[14]": {"biological_target": "Fuc(a1-2)Gal(b1-3)[Fuc(a1-4)]GlcNAc", "how_it_was_run": "as §1"}, "[15]": {"biological_target": "Fuc(a1-2)Gal(b1-3)[Fuc(a1-4)]GlcNAc(b1-2)Man(a1-3)[Fuc(a1-2)Gal(b1-3)[Fuc(a1-4)]GlcNAc(b1-2)Man(a1-3)]Man(b1-4)GlcNAc(b1-4)GlcNAc", "how_it_was_run": "as §1"}, "[16]": {"biological_target": "Fuc(a1-2)Gal(b1-3)[Fuc(a1-4)]GlcNAc(b1-2)Man(a1-3)[Fuc(a1-2)Gal(b1-3)[Fuc(a1-4)]GlcNAc(b1-2)Man(a1-6)]Man(b1-4)GlcNAc(b1-4)[Fuc(a1-6)]GlcNAc(b1-4)[Fuc(a1-6)]GlcNAc", "how_it_was_run": "as §1"}, "[17]": {"biological_target": "Fuc(a1-2)Gal(b1-3)[Fuc(a1-4)]GlcNAc(b1-3)[Fuc(a1-3)[Gal(b1-4)]GlcNAc(b1-6)]Gal(b1-4)Glc", "how_it_was_run": "as §1"}, "[18]": {"biological_target": "Fuc(a1-2)Gal(b1-3)[Fuc(a1-4)]GlcNAc(b1-3)[Gal(b1-4)GlcNAc(b1-6)]Gal(b1-4)Glc", "how_it_was_run": "as §1"}, "Fuc(a1-2)Gal(b1-4)Glc": {"biological_target": "Fuc(a1-2)Gal(b1-4)Glc", "how_it_was_run": "as §1"}, "Fuc(a1-2)Gal(b1-4)Glc6S": {"biological_target": "Fuc(a1-2)Gal(b1-4)Glc6S", "how_it_was_run": "as §1"}, "Fuc(a1-2)Gal(b1-4)GlcNAc": {"biological_target": "Fuc(a1-2)Gal(b1-4)GlcNAc", "how_it_was_run": "as §1"}, "[19]": {"biological_target": "Fuc(a1-2)Gal(b1-4)GlcNAc(b1-2)Man", "how_it_was_run": "as §1"}, "[20]": {"biological_target": "Fuc(a1-2)Gal(b1-4)GlcNAc(b1-2)Man(a1-3)[Fuc(a1-2)Gal(b1-4)GlcNAc(b1-2)Man(a1-6)]Man(b1-4)GlcNAc(b1-4)GlcNAc", "how_it_was_run": "as §1"}, "[21]": {"biological_target": "Fuc(a1-2)Gal(b1-4)GlcNAc(b1-2)Man(a1-3)[Fuc(a1-2)Gal(b1-4)GlcNAc(b1-2)Man(a1-6)]Man(b1-4)GlcNAc(b1-4)[Fuc(a1-6)]GlcNAc", "how_it_was_run": "as §1"}, "[22]": {"biological_target": "Fuc(a1-2)Gal(b1-4)GlcNAc(b1-2)[Fuc(a1-2)Gal(b1-4)GlcNAc(b1-4)]Man(a1-3)[Fuc(a1-2)Gal(b1-4)GlcNAc(b1-2)Man(a1-6)]Man(b1-4)GlcNAc(b1-4)GlcNAc", "how_it_was_run": "as §1"}, "[23]": {"biological_target": "Fuc(a1-2)Gal(b1-4)GlcNAc(b1-3)Gal(b1-4)GlcNAc", "how_it_was_run": "as §1"}, "[24]": {"biological_target": "Fuc(a1-2)Gal(b1-4)GlcNAc(b1-3)Gal(b1-4)GlcNAc(b1-2)Man(a1-3)[Fuc(a1-2)Gal(b1-4)GlcNAc(b1-3)Gal(b1-4)GlcNAc(b1-2)Man(a1-6)]Man(b1-4)GlcNAc(b1-4)GlcNAc", "how_it_was_run": "as §1"}},
  "note": "This is one part of the list.",
  "data": [
    {"binder": "B1", "values": [
      {"measurement": "glycan array binding signal (z-score)", "setting": "Fuc(a1-2)Gal", "result": -0.067},
      {"measurement": "glycan array binding signal (z-score)", "setting": "Fuc(a1-2)Gal(b1-3)GalNAc", "result": -0.448},
      {"measurement": "glycan array binding signal (z-score)", "setting": "[1]", "result": -0.428},
      {"measurement": "glycan array binding signal (z-score)", "setting": "[2]", "result": -0.426},
      {"measurement": "glycan array binding signal (z-score)", "setting": "[3]", "result": -0.259},
      {"measurement": "glycan array binding signal (z-score)", "setting": "[4]", "result": -0.301},
      {"measurement": "glycan array binding signal (z-score)", "setting": "[5]", "result": -0.399},
      {"measurement": "glycan array binding signal (z-score)", "setting": "Fuc(a1-2)Gal(b1-3)GlcNAc", "result": -0.263},
      {"measurement": "glycan array binding signal (z-score)", "setting": "[6]", "result": 8.31},
      {"measurement": "glycan array binding signal (z-score)", "setting": "[7]", "result": -0.157},
      {"measurement": "glycan array binding signal (z-score)", "setting": "[8]", "result": -0.301},
      {"measurement": "glycan array binding signal (z-score)", "setting": "[9]", "result": -0.144},
      {"measurement": "glycan array binding signal (z-score)", "setting": "[10]", "result": 0.182},
      {"measurement": "glycan array binding signal (z-score)", "setting": "[11]", "result": -0.169},
      {"measurement": "glycan array binding signal (z-score)", "setting": "[12]", "result": -0.4},
      {"measurement": "glycan array binding signal (z-score)", "setting": "[13]", "result": -0.245},
      {"measurement": "glycan array binding signal (z-score)", "setting": "[14]", "result": -0.196},
      {"measurement": "glycan array binding signal (z-score)", "setting": "[15]", "result": -0.151},
      {"measurement": "glycan array binding signal (z-score)", "setting": "[16]", "result": -0.22},
      {"measurement": "glycan array binding signal (z-score)", "setting": "[17]", "result": -0.183},
      {"measurement": "glycan array binding signal (z-score)", "setting": "[18]", "result": -0.283},
      {"measurement": "glycan array binding signal (z-score)", "setting": "Fuc(a1-2)Gal(b1-4)Glc", "result": -0.378},
      {"measurement": "glycan array binding signal (z-score)", "setting": "Fuc(a1-2)Gal(b1-4)Glc6S", "result": -0.232},
      {"measurement": "glycan array binding signal (z-score)", "setting": "Fuc(a1-2)Gal(b1-4)GlcNAc", "result": -0.416},
      {"measurement": "glycan array binding signal (z-score)", "setting": "[19]", "result": -0.106},
      {"measurement": "glycan array binding signal (z-score)", "setting": "[20]", "result": 0.892},
      {"measurement": "glycan array binding signal (z-score)", "setting": "[21]", "result": 0.338},
      {"measurement": "glycan array binding signal (z-score)", "setting": "[22]", "result": -0.064},
      {"measurement": "glycan array binding signal (z-score)", "setting": "[23]", "result": -0.361},
      {"measurement": "glycan array binding signal (z-score)", "setting": "[24]", "result": 2.29}
    ]}
  ]
}
